PMC4336329 (PLoS ONE, 2015)
The whole screen tested about 310,000 compounds, of which about 14,000 (4.5%) showed an effect of 50% or more. The effect is printed as a negative number. The list shows a part of the results.

target: human ether-à-go-go-related gene (hERG) potassium channel (human, UniProt Q12809); assay: primary screen, population patch clamp on CHO cells stably expressing hERG
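Further: peak tail current of the secondary pulse compared with the same well before compound.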

Chain of human ether-à-go-go-related gene (hERG) potassium channel (Q12809 whole entry, looked up): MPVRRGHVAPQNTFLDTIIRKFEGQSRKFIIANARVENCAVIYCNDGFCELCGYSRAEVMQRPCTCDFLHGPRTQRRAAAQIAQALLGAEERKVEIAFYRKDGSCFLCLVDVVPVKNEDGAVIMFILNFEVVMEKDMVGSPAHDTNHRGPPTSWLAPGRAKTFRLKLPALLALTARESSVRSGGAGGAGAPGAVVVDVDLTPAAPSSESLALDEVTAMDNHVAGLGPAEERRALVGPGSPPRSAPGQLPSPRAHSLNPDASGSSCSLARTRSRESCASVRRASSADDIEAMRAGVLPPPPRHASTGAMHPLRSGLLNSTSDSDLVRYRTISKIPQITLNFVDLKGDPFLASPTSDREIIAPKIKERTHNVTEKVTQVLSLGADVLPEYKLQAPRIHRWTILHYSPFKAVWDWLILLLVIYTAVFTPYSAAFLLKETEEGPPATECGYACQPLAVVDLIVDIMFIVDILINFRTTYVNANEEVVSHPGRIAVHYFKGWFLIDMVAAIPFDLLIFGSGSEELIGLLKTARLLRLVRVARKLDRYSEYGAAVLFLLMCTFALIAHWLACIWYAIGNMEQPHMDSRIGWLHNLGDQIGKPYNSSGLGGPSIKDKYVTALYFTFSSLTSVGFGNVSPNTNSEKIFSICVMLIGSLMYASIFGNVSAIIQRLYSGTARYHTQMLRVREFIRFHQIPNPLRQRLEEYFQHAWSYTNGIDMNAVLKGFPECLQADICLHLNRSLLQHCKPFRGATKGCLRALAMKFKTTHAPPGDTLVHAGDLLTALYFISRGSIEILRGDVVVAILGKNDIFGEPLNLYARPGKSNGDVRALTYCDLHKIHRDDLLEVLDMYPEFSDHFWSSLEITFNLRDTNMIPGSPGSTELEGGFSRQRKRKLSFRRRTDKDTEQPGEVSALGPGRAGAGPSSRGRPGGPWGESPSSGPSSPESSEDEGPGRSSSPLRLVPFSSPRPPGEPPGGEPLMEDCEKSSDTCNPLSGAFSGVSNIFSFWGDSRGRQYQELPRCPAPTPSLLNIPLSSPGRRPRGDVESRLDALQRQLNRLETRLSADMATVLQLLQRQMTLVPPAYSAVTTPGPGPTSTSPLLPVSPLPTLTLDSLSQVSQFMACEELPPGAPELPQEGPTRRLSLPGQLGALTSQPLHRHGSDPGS

| Compound | hERG current change (%, negative = inhibition) at 10uM |
| --- | --- |
| COc1ccc(CCNC(=O)c2cc3c(=O)n4ccccc4nc3n(Cc3ccco3)c2=N)cc1OC | -76.6% |
| CCOc1ccccc1CN1CCNC(=O)C1CC(=O)NC1CCCCC1 (stereo not shown) | 8.06% |
| Cc1ccc(OCC(=O)NNC(=O)CSc2ncc(C#N)c(N)n2)cc1 | 30.3% |
| CC1(C)CC(=O)C(N=Nc2cc3c(cc2[N+](=O)[O-])OCCO3)=C(O)C1 | 31.2% |
| CN(C)c1ccc(C(=S)N2CCN(Cc3ccccc3)CC2)cc1 | -44.1% |
| Cn1c(O)c(/C=N/N2CCCCC2)c(=O)[nH]c1=O | 13.8% |
| O=C(NCC1CCCO1)C1CCN(S(=O)(=O)N2CCCC2)CC1 (stereo not shown) | -9.85% |
| CC1=NN(C(=O)CCc2ccccc2O)C(O)(C(F)(F)F)C1 (stereo not shown) | 18.9% |
| O=C(CN(C1CCCCC1)S(=O)(=O)c1ccc(Cl)cc1)NCCCO | -25.8% |
| NCCCC[C@H]1CNC(=O)C(=O)N1CCC12CC3CC(CC(C3)C1)C2 | -6.32% |
| Cc1ccc(SCC(=O)OCC(=O)NC2CCCCCCC2)cc1 | -4.33% |
| O=C(NCCc1ccccc1)C1CCN(Cc2cccc3ccccc23)CC1 | -34.4% |
| Cc1ccc2nc(N3CCN(c4ccccc4F)CC3)c(C=O)c(=O)n2c1 | -70.1% |
| Cc1[nH]c(=O)[nH]c(=O)c1NC(=O)c1sc2nc3c(C)cccc3cc2c1N | 18.8% |
| CCN(CC)CC(O)COC(c1ccccc1)c1ccccc1 (stereo not shown) | -57.8% |
| COc1ccc(/C=C2\SC(=O)N(CCNC(=O)Cc3coc4cc(C)ccc34)C2=O)cc1OC | 4.76% |
| CCOc1ccc(N(C(=O)c2snc(C(N)=O)c2N)C(C(=O)NCC2CCCO2)c2ccco2)cc1 (stereo not shown) | 8.01% |
| O=C(CN(c1ccc(Cl)c(C(F)(F)F)c1)S(=O)(=O)c1ccccc1)N1CCOCC1 | -34.6% |
| O=S(=O)(NCc1cn2ccsc2n1)c1ccc2c(c1)OCCO2 | 8.16% |
| N#C/C(C(=O)NCc1ccccc1)=C1/N=C(NC(=O)c2cccs2)c2ccccc21 | -3.78% |
| COc1ccc(C2C(C(C)=O)=C(O)C(=O)N2CCCn2ccnc2)cc1OC (stereo not shown) | -10.8% |
| COc1cc2c(cc1OC)C(/C(C#N)=N\O)=NC(C)(C)C2 | 2.2% |

| Compound | hERG current change (%, negative = inhibition) at 10uM |
| --- | --- |
| CCOC(=O)N1CCN(C(=O)CCCn2nc(C)c3sc4ccccc4c3c2=O)CC1 | -40.8% |
| COCCN(C(=O)Nc1ccccc1)c1ccccc1C | 9.3% |
| COc1ccccc1CNC(=O)C(=O)NCC1CCCO1 (stereo not shown) | 12.8% |
| Cc1ccc(OCC(=O)N/N=C\c2c(C)[nH]n(-c3ccccc3)c2=O)c([N+](=O)[O-])c1 | 5.19% |
| Oc1ccc(/C=N/N(Cc2ccccc2)c2ccccc2)cc1 | 35.8% |
| CC(NC(=O)COc1ccc(/C=N/NS(=O)(=O)c2ccccc2)cc1)c1ccccc1 (stereo not shown) | 10.2% |
| C/C(=N\N1C(=O)CSC1=S)c1ccc(Br)cc1 | 2.26% |
| CC(C)(C)c1ccc(C(=O)NCC(=O)OCC(=O)Nc2ccc3c(c2)OCCO3)cc1 | 3.07% |
| Cn1cccc1/C=C1\SC(=S)N(NC(=O)c2cccc(Cl)c2)C1=O | 0.415% |
| Cc1nnc2ccc(-c3cccc(NS(=O)(=O)c4ccccc4Cl)c3)nn12 | -16.3% |
| O=C(NC(=O)c1ccccc1)Nc1ccccn1 | 9.33% |
| CCCCn1c(N)c(N(CC(C)C)C(=O)c2cc(-c3ccc(F)cc3)nc3ccccc23)c(=O)[nH]c1=O | 8.13% |
| O=C(CSc1ccccc1C(=O)O)c1ccc([N+](=O)[O-])cc1 | -1.57% |
| COC(=O)c1cc(S(=O)(=O)N2CCN(c3ccc(F)cc3)CC2)cn1C | 3.66% |
| COc1ccccc1-n1c(CNC(=O)c2ccco2)nnc1SCC(=O)Nc1nccs1 | 5.63% |
| CC12CN3CC(C)(CN(C1)C3c1cccnc1)C2=O (stereo not shown) | -0.24% |
| O=C(CN1CCN(S(=O)(=O)c2ccc(Br)cc2)CC1)N/N=C/c1cc([N+](=O)[O-])ccc1Cl | -32.9% |
| Cc1cc(=O)oc2cc(OCC(=O)NCCc3ccccc3)ccc12 | 20.1% |
| CCOC(=O)CN1C(=O)S/C(=C/c2ccc(C)o2)C1=O | -72.7% |
| Cc1cc([N+](=O)[O-])c(N2CCC[C@@H]2C(=O)O)c([N+](=O)[O-])c1 | 18.2% |
| COc1ccc(OCC(=O)N2CCCC2=O)c([N+](=O)[O-])c1 | 14.8% |
| COc1ccccc1NC(=O)CSc1nnc(CSc2nc(C)cc(C)n2)o1 | -0.217% |

| Compound | hERG current change (%, negative = inhibition) at 10uM |
| --- | --- |
| CC(C)[C@H](NC(=O)NCc1cccs1)C(=O)O | 18.7% |
| COc1ccc2cc(C)c(SCC(=O)Nc3cc(C)on3)nc2c1 | 6.5% |
| Cc1cccc(-n2nnc3c(=O)n(CC(=O)Nc4cc(C)on4)cnc32)c1 | 13.8% |
| O=C(NC(=S)NCC1CCCO1)c1ccccc1F (stereo not shown) | 12.6% |
| NC(=O)CSc1nnc(NC(=O)c2ccc(Br)o2)s1 | 22.2% |
| COC(=O)c1cc(S(=O)(=O)N2CCC(c3ccccc3)C2)c[nH]1 (stereo not shown) | -26.1% |
| COc1ccc(NC(=O)c2ccc(Br)o2)cc1 | -1.05% |
| Cc1ccc(S(=O)(=O)NN2C(=O)c3ccccc3NC2c2ccccn2)cc1 (stereo not shown) | 1.49% |
| CCCN(C1CCS(=O)(=O)C1)S(=O)(=O)c1ccc2ccccc2c1 (stereo not shown) | -29% |
| CC(C)(C)c1cc(-c2ccccc2)no1 | 8.56% |
| COc1ccc(CC(=O)Nc2ccc(S(=O)(=O)N3CCC(C)CC3)cc2)c(OC)c1 | 7.15% |
| COC(=O)c1ccc(NC(=O)Cn2nc(C)cc2C)cc1 | 18.8% |
| CCc1ccc(NC(=O)CSc2nncn2-c2cccnc2)cc1 | -3.57% |
| CCCCn1c(N)c(N(CCC(C)C)C(=O)C2CCN(C(=O)c3ccccc3C)CC2)c(=O)[nH]c1=O | 3.65% |
| CC(=O)Nc1ccc(CN2CCN(c3cccc(C(F)(F)F)c3)CC2)cc1 | -38% |
| O=C(CCCc1ccccc1)Nc1cccnc1 | -13.7% |
| C/C(=N\Nc1nc(-c2ccccc2)cs1)c1cccs1 | 11.9% |
| CC(C)CCNC(=O)c1ccc2c(c1)ncn2C1CCCCC1 | -42.8% |
| O=C(Nc1c(F)cccc1F)c1ccc(-n2cncn2)nc1 | 7.84% |
| O=S(=O)(NCc1cccnc1)c1ccc(Cl)c(Cl)c1Cl | -20.8% |
| O=C(O)/C=C/c1ccc(Oc2ncccn2)cc1 | -12% |
| Cc1cc(OC(C)C(=O)NCCCN2CCOCC2)c2c(C)cc(=O)oc2c1 (stereo not shown) | 2.25% |

| Compound | hERG current change (%, negative = inhibition) at 10uM |
| --- | --- |
| O=C1Nc2c(c(=O)[nH]c(=O)n2-c2ccccc2F)C(C(F)(F)F)(C(F)(F)F)N1 | 22.5% |
| O=C(N/N=C/c1cc([N+](=O)[O-])ccc1O)c1cccc2ccccc12 | 20.6% |
| N#CC1(NC(=O)COC(=O)c2cc([N+](=O)[O-])ccc2N2CCOCC2)CCCCC1 | -55.3% |
| COc1ccc(-c2noc(CSc3ccccc3)n2)cc1OC | -18.6% |
| CCCCN(C(=O)COC(=O)c1nc2nc(C)cc(C)n2n1)C1CCS(=O)(=O)C1 (stereo not shown) | 0.242% |
| COc1ccc(S(=O)(=O)NCc2ccc(C)cc2)cc1 | -4.83% |
| Cc1nc(NC(=O)c2ccccc2)sc1-c1csc(Nc2ccc(F)cc2)n1 | 19% |
| COc1ccc(OC)c(NC(=O)C(=O)/C=C(\O)c2cc(OC)ccc2OC)c1 | -19% |
| CCCOC(=O)c1ccc2c(c1)C(=O)N(c1ccccc1)C2=O | 6.08% |
| Cc1cc(CN2CCCC(N3CCc4ccccc4C3)C2)cc(C)c1O (stereo not shown) | -35.9% |
| O=C(COc1ccc2ccc(=O)oc2c1)NC(Cc1ccc(Cl)cc1)C(=O)O (stereo not shown) | 10.3% |
| COc1cccc(CNC(=O)C2CCN(c3nn4c(=O)cc(C)nc4s3)CC2)c1 | 4.82% |
| CN1CCN(c2ccc(NC(=O)c3ccc4c(c3)OCCO4)cc2)CC1 | -35.6% |
| Cc1ccc(CNC(=O)C23CN(Cc4ccccc4)CC2C(c2ccc([N+](=O)[O-])cc2)=NO3)o1 (stereo not shown) | -49.6% |
| COc1ccc(NC(=O)c2ccc3c(SCC(=O)O)c4c(nc3c2)CCCC4)c(OC)c1 | 0.828% |
| CC(C)c1ccc(NC(=O)NN2CCOCC2)cc1 | 3.62% |
| CS(=O)(=O)N1CCN(CC(=O)NC2CCCC2)CC1 | -11.4% |
| Fc1cnc(N2CCOCC2)nc1N1CCOCC1 | 12.7% |
| C/C(=N/OCO/N=C(\C)c1ccccc1F)c1ccccc1F | 2.36% |
| Cc1ccc2nc(SCC(=O)N3CCC(C)CC3)nc(=O)n2c1 | -9.74% |
| O=C(NCC(=O)N(c1cccnc1)C(C(=O)NC1CCCC1)c1cccs1)c1ccco1 (stereo not shown) | -2.17% |
| Cc1ccc(S(=O)(=O)N2CCCCC2)cc1NC(=O)C1CCCO1 (stereo not shown) | 2.45% |
